Assay results as given in the supplement of paper PMC4967469.

Assays:
Test in all cases: Viability of human cancer cell lines after 72 h of drug (GDSC screen)
[1] = compound: Cc1ccc(NC(=O)c2cccc(C(C)(C)C#N)c2)cc1Nc1ccc2ncn(C)c(=O)c2c1 [AZ628]; settings: top dose 4 µM; top dose inferred
Description: (§1)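 Human cancer cell lines in 384-well plates, medium with 10% serum, drug for 72 h over a 256-fold dose range (nine 2-fold or five 4-fold steps up to the top dose). Adherent lines were fixed and stained with the nucleic acid dye Syto60, suspension lines read with resazurin; signal relative to control wells, capped at 0 and 100%. One two-parameter sigmoid per drug and line, fitted in a mixed model over all curves with the slope shared within a line.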

[2] = compound: N#CC(c1ccnc(NCCc2cccnc2)n1)c1nc2ccccc2s1 [AS601245]; settings: top dose 8 µM; top dose inferred
Description: as §1

[3] = compound: Cn1cnc2c(F)c(Nc3ccc(Br)cc3Cl)c(C(=O)NOCCO)cc21 [AZD6244]; settings: top dose 4 µM; screen: GDSC drug entry 1498; top dose inferred
Description: as §1

[4] = compound: Nc1ccc(C(=O)Nc2cccc(-c3nc(N4CCOCC4)c4oc5ncccc5c4n3)c2)cn1 [YM201636]; settings: top dose 5.12 µM; top dose inferred
Description: as §1

[5] = compound: NC(=O)C1CCCc2c1[nH]c1ccc(Cl)cc21 [EX-527]; settings: top dose 20 µM
Description: as §1

Row | Cell Line | AUC [1] | IC50 [1] [µM] | AUC [2] | IC50 [2] [µM] | AUC [3] | IC50 [3] [µM] | AUC [4] | IC50 [4] [µM] | AUC [5] | IC50 [5] [µM]
1 | 8-MG-BA (glioma, adherent) | 0.883 | 3.81 | 0.836 | 4.82 | 0.928 | > 4 | 0.94 | > 5.12 | 0.954 | > 20
2 | 697 (lymphoblastic leukaemia, suspension) | 0.583 | 0.402 | 0.825 | 3.57 | 0.983 | > 4 | 0.774 | 1.62 | 0.989 | > 20
3 | A3-KAW (B-cell lymphoma, suspension) | 0.935 | > 4 | 0.888 | 5.86 | 0.731 | 0.959 | 0.881 | 3.5 | 0.992 | > 20
4 | A4-Fuk (B-cell lymphoma, suspension) | 0.594 | 0.457 | 0.853 | 6.71 | 0.939 | > 4 | 0.912 | > 5.12 | 0.984 | > 20
5 | A101D (melanoma, adherent) | 0.247 | 0.0388 | 0.645 | 1.39 | 0.534 | 0.316 | 0.888 | > 5.12 | 0.978 | > 20
6 | A253 (head and neck, adherent) | 0.939 | > 4 | 0.873 | 7.33 | 0.954 | > 4 | 0.985 | > 5.12 | 0.986 | > 20
7 | A388 (skin, adherent) | 0.89 | > 4 | 0.88 | > 8 | 0.904 | > 4 | 0.935 | > 5.12 | 0.98 | > 20
8 | ALL-PO (lymphoblastic leukaemia, suspension) | 0.742 | 1.29 | 0.683 | 1.68 | 0.958 | > 4 | 0.654 | 0.88 | 0.962 | > 20
9 | ALL-SIL (T-cell leukaemia, suspension) | 0.398 | 0.137 | 0.804 | 3.37 | 0.982 | > 4 | 0.64 | 0.732 | 0.987 | > 20
10 | AM-38 (glioma, semi-adherent) | 0.949 | > 4 | 0.968 | > 8 | 0.983 | > 4 | 0.775 | 2.06 | 0.987 | > 20
11 | AMO-1 (haematopoietic neoplasm, suspension) | 0.948 | > 4 | 0.842 | 4.47 | 0.932 | > 4 | 0.783 | 1.84 | 0.983 | > 20
12 | ARH-77 (myeloma, suspension) | 0.912 | > 4 | 0.904 | > 8 | 0.969 | > 4 | 0.893 | > 5.12 | 0.985 | > 20
13 | ATN-1 (T-cell lymphoblastic leukaemia, suspension) | 0.984 | > 4 | 0.891 | > 8 | 0.983 | > 4 | 0.842 | 3.25 | 0.979 | > 20
14 | BB30-HNC (head and neck, adherent) | 0.803 | 1.94 | 0.82 | 4.48 | 0.637 | 0.593 | 0.914 | > 5.12 | 0.981 | > 20
15 | BB49-HNC (head and neck, adherent) | 0.522 | 0.294 | 0.606 | 1.1 | 0.347 | 0.0788 | 0.863 | > 5.12 | 0.968 | > 20
16 | BB65-RCC (kidney, adherent) | 0.947 | > 4 | 0.776 | 3.68 | 0.803 | 2.36 | 0.956 | > 5.12 | 0.98 | > 20
17 | BC-1 (B-cell lymphoma, suspension) | 0.956 | > 4 | 0.833 | 4.13 | 0.964 | > 4 | 0.864 | 3.43 | 0.979 | > 20
18 | BE2-M17 (neuroblastoma, adherent) | 0.741 | 1.26 | 0.913 | > 8 | 0.834 | 2.71 | 0.984 | > 5.12 | 0.979 | > 20
19 | BE-13 (lymphoblastic leukaemia, suspension) | 0.69 | 0.819 | 0.873 | 6.88 | 0.986 | > 4 | 0.729 | 1.36 | 0.985 | > 20
20 | BL-41 (Burkitt lymphoma, suspension) | 0.96 | > 4 | 0.774 | 2.42 | 0.994 | > 4 | 0.751 | 1.35 | 0.99 | > 20
21 | BT-474 (breast, adherent) | 0.977 | > 4 | 0.874 | > 8 | 0.98 | > 4 | 0.87 | > 5.12 | 0.965 | > 20

Row | Cell Line | AUC [1] | IC50 [1] [µM] | AUC [2] | IC50 [2] [µM] | AUC [3] | IC50 [3] [µM] | AUC [4] | IC50 [4] [µM] | AUC [5] | IC50 [5] [µM]
22 | BV-173 (chronic myeloid leukaemia, suspension) | 0.657 | 0.644 | 0.889 | 7.22 | 0.895 | 3.86 | 0.919 | > 5.12 | 0.984 | > 20
23 | Becker (glioma, adherent) | 0.925 | > 4 | 0.82 | 5.37 | 0.839 | 3.22 | 0.947 | > 5.12 | 0.984 | > 20
24 | C2BBe1 (large intestine, adherent) | 0.971 | > 4 | 0.907 | > 8 | 0.929 | > 4 | 0.917 | > 5.12 | 0.972 | > 20
25 | CA46 (Burkitt lymphoma, suspension) | 0.937 | > 4 | 0.817 | 4.91 | 0.984 | > 4 | 0.684 | 1.09 | 0.985 | > 20
26 | CAS-1 (glioma, adherent) | 0.858 | > 4 | 0.881 | > 8 | 0.891 | > 4 | 0.852 | > 5.12 | 0.974 | > 20
27 | NCI-H510A (small cell lung carcinoma, semi-adherent) | 0.967 | > 4 | 0.934 | > 8 |  |  | 0.981 | > 5.12 | 0.959 | > 20
28 | NCI-H748 (small cell lung carcinoma, suspension) | 0.939 | > 4 | 0.981 | > 8 |  |  | 0.929 | > 5.12 | 0.977 | > 20
29 | NCI-H1963 (small cell lung carcinoma, suspension) | 0.981 | > 4 | 0.929 | > 8 |  |  | 0.991 | > 5.12 | 0.991 | > 20
30 | NCI-H2171 (small cell lung carcinoma, suspension) | 0.926 | > 4 | 0.95 | > 8 |  |  | 0.951 | > 5.12 | 0.98 | > 20
31 | NCI-H2196 (small cell lung carcinoma, adherent) | 0.959 | > 4 | 0.88 | > 8 |  |  | 0.772 | 2.09 | 0.982 | > 20
32 | NCI-SNU-16 (stomach, suspension) | 0.937 | > 4 | 0.989 | > 8 |  |  | 0.984 | > 5.12 | 0.989 | > 20
33 | RPMI-8866 (chronic myeloid leukaemia, suspension) | 0.988 | > 4 | 0.892 | > 8 |  |  | 0.758 | 1.66 | 0.971 | > 20
34 | SCC-3 (B-cell lymphoma, suspension) | 0.968 | > 4 | 0.921 | 6.14 |  |  | 0.945 | 4.92 | 0.992 | > 20
35 | SIG-M5 (acute myeloid leukaemia, suspension) | 0.085 | 0.0193 | 0.817 | 3.13 |  |  | 0.648 | 0.735 | 0.965 | > 20
36 | SK-MEL-2 (melanoma, adherent) | 0.83 | 2.66 | 0.852 | 6.54 |  |  | 0.957 | > 5.12 | 0.974 | > 20
37 | SU-DHL-1 (anaplastic large cell lymphoma, suspension) | 0.914 | 2.84 | 0.993 | > 8 |  |  | 0.934 | 4.31 | 0.995 | > 20
38 | SUP-B15 (lymphoblastic leukaemia, suspension) | 0.738 | 1.16 | 0.797 | 3.6 |  |  | 0.785 | 2.09 | 0.985 | > 20
39 | TALL-1 (T-cell lymphoblastic leukaemia, suspension) | 0.922 | > 4 | 0.949 | > 8 |  |  | 0.977 | > 5.12 | 0.987 | > 20
40 | THP-1 (acute myeloid leukaemia, suspension) | 0.902 | > 4 | 0.823 | 4.11 |  |  | 0.89 | 4.87 | 0.99 | > 20
41 | UACC-812 (breast, adherent) | 0.991 | > 4 | 0.99 | > 8 |  |  | 0.954 | > 5.12 | 0.991 | > 20

The IC50 comes from the fitted curve, where viability falls to half of the control; a limit (>, <) means that the fit lies beyond the doses tested. For AUC the same curve is integrated over the 256-fold range of doses and scaled to a fraction; values near 1 show little effect. For some assays here: Any top dose called inferred was calculated from the reported fits. For some assays here: An entry number marks a drug with two screens in the source, which often give different values.
